# Several values for one entry are separate records, joined by “and”; a condition that tells them apart may be missing. Identical values can stand only once. Counter-ions that a name gives are not always drawn. Among all 5,800 compounds or so, about 620 (11%) showed activity.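 The calls were made as follows: active = score above a cut-off or among the top three wells of a plate; in these data no inactive exceeds 0.85.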 This is a selection; strong and weak results do not stand in their true shares.
# System: primary human hepatic stellate cells (donor 1)
# Experiment: scaled lipid accumulation score (0 = DMSO-like, 1 = nortriptyline-like); higher = stronger HSC inactivation (lipid re-accumulation), active = hit call of the paper
# Settings: 48 h
# [1] = library stock concentration: 10 mM
# [2] = library stock concentration: 3.33 mM
# [3] = library stock concentration: 1 mM
smiles,measurement,setting,value
COc1cc(C(=O)NC2CCN(C)CC2)ccc1Nc1ncc2c(n1)N(C1CCCC1)CCC(=O)N2C(C)C,scaled lipid accumulation score,[1],active: 0.868
O=C(O)CCCN1CCC(O[C@@H](c2ccc(Cl)cc2)c2ccccn2)CC1 [Bepotastine Besilate],scaled lipid accumulation score,[2],inactive: ≤ 0
same,scaled lipid accumulation score,[1],inactive: ≤ 0
CNc1nccc(-c2cccnc2Oc2cc(C(=O)Nc3cccc(C(F)(F)F)c3)ccc2C)n1,scaled lipid accumulation score,[1],active: 1.13
"CCN(CC)CCOc1ccc(/C(=C(/Cl)c2ccccc2)c2ccccc2)cc1.O=C(O)CC(O)(CC(=O)O)C(=O)O [Clomiphene citrate (Z,E)]",scaled lipid accumulation score,,active: 0.946
CC[C@]1(O)C[C@H]2CN(CCc3c([nH]c4ccccc34)[C@@](C(=O)OC)(c3cc4c(cc3OC)N(C=O)[C@H]3[C@@](O)(C(=O)OC)[C@H](OC(C)=O)[C@]5(CC)C=CCN6CC[C@]43[C@@H]65)C2)C1.O=S(=O)(O)O [Vincristine sulfate],scaled lipid accumulation score,[1],active: 1.36
COc1cc(C(=O)OCCCN2CCCN(CCCOC(=O)c3cc(OC)c(OC)c(OC)c3)CC2)cc(OC)c1OC.Cl.Cl,scaled lipid accumulation score,[1],active: 0.84
CCCN(CC1CC1)c1nc(C)nc(Nc2c(Cl)cc(Cl)cc2Cl)c1Cl,scaled lipid accumulation score,[1],inactive: 0.333 and inactive: 0.068
COc1ccc(Cl)cc1NC(=O)Nc1cc(C)nc2ccccc12,scaled lipid accumulation score,[1],active: 1.1
CN1CCN(C(=O)c2cc3cc(Cl)ccc3[nH]2)CC1,scaled lipid accumulation score,[2],inactive: 0.053
same,scaled lipid accumulation score,[1],inactive: 0.452
COc1ccc(CNc2nc(N3CCC[C@H]3CO)ncc2C(=O)NCc2ncccn2)cc1Cl [Avanafil],scaled lipid accumulation score,[2],inactive: ≤ 0
same,scaled lipid accumulation score,[1],inactive: 0.13
CCOC(=O)C1=C(C)NC(C)=C(C(=O)OC)C1c1cccc(Cl)c1Cl (stereo not given) [Felodipine],scaled lipid accumulation score,[1],active: 0.931
Nc1ncnc2c1ncn2C1CCCC1 [9-cyclopentyladenine],scaled lipid accumulation score,[1],inactive: 0.154
CC1O[C@H](O[C@]2(O[C@H]3CC[C@@]4(C)C(=CC[C@H]5[C@@H]6C[C@H]7[C@H]([C@H](C)[C@H]8CC[C@H](C)CN87)[C@@]6(C)CC[C@@H]54)C3)C[C@@H](O[C@@H]3OC(CO)[C@@H](O)[C@@H](O)C3O)[C@@H](O)C(CO)O2)C(O)[C@@H](O)[C@H]1O (stereo partly drawn) [Solanine alpha],scaled lipid accumulation score,,inactive: ≤ 0
COc1cc(Nc2ncc(F)c(Nc3ccc4c(n3)NC(=O)C(C)(C)O4)n2)cc(OC)c1OC,scaled lipid accumulation score,[1],active: 1.06
CC(=O)OCC(=O)[C@@]1(O)CC[C@H]2[C@@H]3CCC4=CC(=O)C=C[C@]4(C)[C@H]3[C@@H](O)C[C@@]21C,scaled lipid accumulation score,[1],inactive: ≤ 0
CC(=O)OCC(=O)[C@@]1(O)CC[C@H]2[C@@H]3CCC4=CC(=O)C=C[C@]4(C)[C@H]3[C@@H](O)C[C@@]21C [Prednisolone acetate],scaled lipid accumulation score,library stock concentration: 5 mM,inactive: 0.066
same,scaled lipid accumulation score,[1],inactive: ≤ 0
O=C1NC(c2cccc([N+](=O)[O-])c2)=CCN1c1ccccc1O [Icilin],scaled lipid accumulation score,[3],inactive: ≤ 0
same,scaled lipid accumulation score,[1],inactive: ≤ -0.07 and inactive: 0.063
C[C@]12CCC(=O)C=C1CC[C@@H]1[C@@H]2[C@@H](O)C[C@@]2(C)[C@H]1CC[C@]2(O)C(=O)COP(=O)(O)O [Hydrocortisone phosphate triethylamine],scaled lipid accumulation score,library stock concentration: 3.1 mM,inactive: ≤ -0.001
CCCNC(=O)N1N=C(c2ccc(N)cc2)c2cc3c(cc2C1C)OCO3 (stereo not given),scaled lipid accumulation score,[1],inactive: ≤ 0
CC[C@H](c1ccc(O)cc1)[C@@H](CC)c1ccc(O)cc1 [Hexestrol],scaled lipid accumulation score,,inactive: ≤ 0
same,scaled lipid accumulation score,[2],inactive: ≤ 0
same,scaled lipid accumulation score,[1],inactive: 0.226 and inactive: ≤ 0
Cc1c(Nc2ncccc2C(=O)O)cccc1C(F)(F)F [Flunixin meglumine],scaled lipid accumulation score,,inactive: ≤ 0
Cc1c(Nc2ncccc2C(=O)O)cccc1C(F)(F)F [Flunixin Meglumin],scaled lipid accumulation score,[2],inactive: ≤ 0
same,scaled lipid accumulation score,[1],inactive: ≤ 0
O=C(Cc1ccccc1)NO [Phenylacetohydroxamic acid],scaled lipid accumulation score,[1],inactive: ≤ 0
CCCCCC(O)CCCC(=O)O (stereo not given) [5-hydroxydecanoic acid sodium],scaled lipid accumulation score,[1],inactive: 0.018
N#CC1(c2ccc(NC(=O)c3cccnc3NCc3ccncc3)cc2)CCCC1 [Apatinib],scaled lipid accumulation score,[2],inactive: ≤ 0
same,scaled lipid accumulation score,[1],inactive: 0.463
OC[C@@H](O)CN1CCN(c2ccccc2)CC1 [Levodropropizine],scaled lipid accumulation score,[2],inactive: ≤ 0
same,scaled lipid accumulation score,[1],inactive: ≤ -0.001
CCCNC(=O)[C@H]1O[C@@H]1C(=O)N[C@H](C(=O)N1CCC[C@H]1C(=O)OC)C(C)CC (stereo not given in full),scaled lipid accumulation score,library stock concentration: 12.6 mM,active: 0.868
NCCc1ccc(O)c(O)c1 [Intropin],scaled lipid accumulation score,[1],inactive: ≤ 0
NCCc1ccc(O)c(O)c1 [Dopamine hydrochloride],scaled lipid accumulation score,[1],inactive: ≤ 0 and inactive: ≤ -0.07
NCCc1ccc(O)c(O)c1 [Dopamine HCl],scaled lipid accumulation score,[2],inactive: 0.03
same,scaled lipid accumulation score,[1],inactive: ≤ 0
Nc1ncnc2c1c(-c1cccc(OCc3ccccc3)c1)cn2[C@H]1C[C@@H](CN2CCC2)C1,scaled lipid accumulation score,[2],active: 0.894
same,scaled lipid accumulation score,[1],active: 1.01
C[C@H](Cc1ccc(O)c(O)c1)[C@@H](C)Cc1ccc(O)c(O)c1,scaled lipid accumulation score,[1],inactive: ≤ -0.055
NC(N)=NC(N)=Nc1ccccc1 [1-Phenylbiguanide],scaled lipid accumulation score,[1],inactive: ≤ 0
CC(C)=CCCC(C)(OC1OC(COC2OCC(O)C(O)C2O)C(O)C(O)C1O)C1CCC2(C)C1C(O)CC1C3(C)CCC(OC4OC(CO)C(O)C(O)C4O)C(C)(C)C3CCC12C (stereo not given) [Gynostemma Extract],scaled lipid accumulation score,[2],inactive: 0.01
same,scaled lipid accumulation score,[1],inactive: ≤ 0
CCCCCCCCCCCCCCCC(=O)N[C@H](CN1CCOCC1)[C@H](O)c1ccccc1 (racemic),scaled lipid accumulation score,[3],inactive: ≤ -0.021
NC(=O)c1ccccc1 [Benzamide],scaled lipid accumulation score,[1],inactive: ≤ 0
C[C@H](CS)C(=O)N1CCC[C@H]1C(=O)O [Captopril],scaled lipid accumulation score,,inactive: 0.036
same,scaled lipid accumulation score,[2],inactive: ≤ 0
same,scaled lipid accumulation score,library stock concentration: 9.2 mM,inactive: ≤ -0.006 and inactive: ≤ 0
same,scaled lipid accumulation score,[1],inactive: ≤ 0
C[C@H](CS)C(=O)N1CCC[C@H]1C(=O)O,scaled lipid accumulation score,[1],inactive: ≤ 0
c1ccc(\C(\c2c3cccc2)=C\CCNC)c(C=C3)c1 [Norcyclobenzaprine],scaled lipid accumulation score,,active: 1.13
CN(Cc1cc(Br)cc(Br)c1N)C1CCCCC1 [Bromhexine HCl],scaled lipid accumulation score,[2],inactive: ≤ 0
same,scaled lipid accumulation score,library stock concentration: 5.3 mM,inactive: 0.053
same,scaled lipid accumulation score,[1],inactive: 0.46
CN(Cc1cc(Br)cc(Br)c1N)C1CCCCC1 [Bromhexine hydrochloride],scaled lipid accumulation score,library stock concentration: 4.8 mM,inactive: 0.194
same,scaled lipid accumulation score,[1],inactive: ≤ -0.027
CN(C)CCCCC(=O)Nc1ccc(NC(=S)NC(=O)c2ccc(C(C)(C)C)cc2)cc1 [Tenovin-6],scaled lipid accumulation score,[2],active: 1.18
CC1(C)O[C@@H]2C[C@H]3[C@@H]4C[C@H](F)C5=CC(=O)C=C[C@]5(C)[C@H]4[C@@H](O)C[C@]3(C)[C@]2(C(=O)CO)O1 [Flunisolide],scaled lipid accumulation score,,inactive: ≤ 0
same,scaled lipid accumulation score,[1],inactive: 0.051
CC1(C)O[C@@H]2C[C@H]3[C@@H]4C[C@H](F)C5=CC(=O)C=C[C@]5(C)[C@H]4[C@@H](O)C[C@]3(C)[C@]2(C(=O)CO)O1 [FluniSOLIDe],scaled lipid accumulation score,[1],inactive: 0.498
Nc1nc(N)c2nc(-c3cccc(O)c3)c(-c3cccc(O)c3)nc2n1,scaled lipid accumulation score,[2],inactive: ≤ 0
same,scaled lipid accumulation score,[1],inactive: ≤ 0
Cn1cnc2c(F)c(Nc3ccc(Br)cc3Cl)c(C(=O)NOCCO)cc21 [Selumetinib (AZD6244)],scaled lipid accumulation score,[2],inactive: ≤ 0
same,scaled lipid accumulation score,[1],inactive: ≤ 0
Cn1cnc2c(F)c(Nc3ccc(Br)cc3Cl)c(C(=O)NOCCO)cc21,scaled lipid accumulation score,library stock concentration: 80 uM,inactive: ≤ 0
same,scaled lipid accumulation score,library stock concentration: 400 uM,inactive: ≤ 0 and inactive: ≤ -0.005
same,scaled lipid accumulation score,library stock concentration: 2 mM,inactive: ≤ 0 and inactive: ≤ -0.005
same,scaled lipid accumulation score,[1],inactive: ≤ 0 and inactive: 0.768
Br.Br.CN(C)CCCc1cc(C(=O)Nc2ccc(-c3ccncc3)cc2)ccc1O,scaled lipid accumulation score,[1],active: 1.13
CC(C)NCC(O)COc1cccc2[nH]ccc12 (stereo not given) [Pindolol],scaled lipid accumulation score,,inactive: ≤ 0
same,scaled lipid accumulation score,library stock concentration: 8.1 mM,inactive: ≤ -0.006 and inactive: 0.131
same,scaled lipid accumulation score,[1],inactive: ≤ 0 and inactive: ≤ -0.055 and inactive: 0.071
CC(C)NCC(O)COc1cccc2[nH]ccc12 (stereo not given),scaled lipid accumulation score,[1],inactive: ≤ 0
O=C(c1ccccc1)c1ccc2nc(NC(=O)c3csc(C4CCN(c5ncnc6ccsc56)CC4)n3)[nH]c2c1,scaled lipid accumulation score,[2],inactive: ≤ -0.009
same,scaled lipid accumulation score,[1],inactive: ≤ 0
O=C(O)CCC/C=C\C[C@@H]1[C@@H](/C=C/[C@@H](O)Cc2ccccc2)[C@H](O)C[C@@H]1O [16-phenyl tetranor Prostaglandin F2.alpha.],scaled lipid accumulation score,[3],inactive: ≤ 0
"CCCCCC(O)C=CC1C2CC(CO2)C1CCCCCCC(=O)O (stereo not drawn) [9,11-methane-epoxy Prostaglandin F1.alpha.]",scaled lipid accumulation score,[3],inactive: 0.048
Cn1c(N2CCCCS2(=O)=O)nc(C(=O)NCc2ccc(F)cc2)c(O)c1=O,scaled lipid accumulation score,[2],inactive: 0.024
same,scaled lipid accumulation score,[1],inactive: ≤ 0
CC(CN(C)C)CN1c2ccccc2CCc2ccccc21 (stereo not given) [Trimipramine maleate salt],scaled lipid accumulation score,,inactive: 0.27
CC(CN(C)C)CN1c2ccccc2CCc2ccccc21 (stereo not given) [Trimipramine maleate],scaled lipid accumulation score,library stock concentration: 4.9 mM,inactive: 0.715
same,scaled lipid accumulation score,[1],inactive: 0.647
COP(=O)(OC)OC(c1ccc(Cl)cc1)P(=O)(OC)OC (stereo not given),scaled lipid accumulation score,[1],inactive: ≤ -0.001
COC(=O)[C@H]1[C@H]2C[C@H]3c4[nH]c5ccccc5c4CCN3C[C@H]2CC[C@@H]1O [Rauwolscine hydrochloride],scaled lipid accumulation score,,inactive: ≤ 0
same,scaled lipid accumulation score,[1],inactive: ≤ 0
COC(=O)C(C)(N)Cc1ccc(O)cc1 (racemic) [alpha-Methyl-DL-tyrosine methyl ester hydrochloride],scaled lipid accumulation score,[1],inactive: ≤ -0.019

# — the supplement of paper PMC9135407
